{
  "source": "the supplement of paper PMC3334620",
  "note": "The full ranking holds about 33,000 sequences; the median of “E-score (-0.5 to 0.5)” is about -0.016, and the highest 2% start at about 0.32. Some of the results follow.",
  "data": [
    {"target": "T1, Stp1 (UniProt B3LFK1)", "T1 sequence": "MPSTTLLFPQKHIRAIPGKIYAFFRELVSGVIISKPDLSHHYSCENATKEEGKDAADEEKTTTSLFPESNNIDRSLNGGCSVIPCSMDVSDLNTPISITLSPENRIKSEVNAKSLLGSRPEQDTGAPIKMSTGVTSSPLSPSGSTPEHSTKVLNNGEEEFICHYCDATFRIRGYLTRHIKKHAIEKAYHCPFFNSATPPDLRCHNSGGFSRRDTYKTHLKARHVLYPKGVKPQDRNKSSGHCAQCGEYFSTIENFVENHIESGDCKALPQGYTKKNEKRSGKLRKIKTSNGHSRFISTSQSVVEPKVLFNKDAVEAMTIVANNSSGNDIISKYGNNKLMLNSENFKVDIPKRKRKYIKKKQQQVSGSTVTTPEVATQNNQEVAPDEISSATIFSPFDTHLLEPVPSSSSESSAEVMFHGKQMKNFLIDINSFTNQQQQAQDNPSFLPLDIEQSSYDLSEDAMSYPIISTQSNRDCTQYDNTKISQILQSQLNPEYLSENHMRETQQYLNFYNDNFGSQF", "test": "PBM E-score (8-mer binding enrichment) (E-score (-0.5 to 0.5)); higher = stronger / more preferred TF binding; most listed sequences are background and not binding sites", "conditions": "protein concentration: 200 nM; construct: GST-full length", "procedure,_shortened": "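For each ungapped eight-base word taken together with its reverse complement, the Universal PBM Analysis Suite assigned an E-score. Binding data came from GST-tagged yeast transcription factors, applied at about 100-200 nM, on universal all-10-mer Agilent arrays made double-stranded by primer extension. Fluorescent anti-GST marked bound protein, and scans were normalised with masliner.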", "values": [
      {"sequence": "ACGAAAAG", "PBM E-score": 0.169},
      {"sequence": "CAACTGAC", "PBM E-score": -0.0279},
      {"sequence": "GAAAAAGC", "PBM E-score": 0.0911},
      {"sequence": "GCTCCACA", "PBM E-score": -0.0368},
      {"sequence": "CGTCTGAC", "PBM E-score": 0.047},
      {"sequence": "CTAGTGAG", "PBM E-score": 0.0162},
      {"sequence": "CTTAACTA", "PBM E-score": 0.109},
      {"sequence": "ATCTTAAG", "PBM E-score": 0.0798},
      {"sequence": "AATAGGGC", "PBM E-score": 0.181},
      {"sequence": "ACTTTCAT", "PBM E-score": -0.0308},
      {"sequence": "AACGCCCC", "PBM E-score": 0.213},
      {"sequence": "ATCAGAAA", "PBM E-score": 0.0189},
      {"sequence": "ATTCTCAG", "PBM E-score": -0.0695},
      {"sequence": "TGTAACAA", "PBM E-score": 0.0601},
      {"sequence": "CAGGTGGA", "PBM E-score": -0.0677},
      {"sequence": "AGTTCTCG", "PBM E-score": -0.0106},
      {"sequence": "AATATCAC", "PBM E-score": 0.102},
      {"sequence": "CAGCGACC", "PBM E-score": -0.0884},
      {"sequence": "AAGTCAAC", "PBM E-score": -0.131},
      {"sequence": "CCTCATTA", "PBM E-score": 0.102},
      {"sequence": "TCGCCAAA", "PBM E-score": -0.178},
      {"sequence": "ATTTGCTG", "PBM E-score": 0.188},
      {"sequence": "GGAGGCGA", "PBM E-score": 0.0142},
      {"sequence": "AATCCTTG", "PBM E-score": -0.0225},
      {"sequence": "AAAGGCAT", "PBM E-score": 0.305},
      {"sequence": "CTGCGATC", "PBM E-score": -0.0846},
      {"sequence": "AGCTGAGC", "PBM E-score": -0.0204},
      {"sequence": "CAAGCGGA", "PBM E-score": -0.0234},
      {"sequence": "GAGCCCCC", "PBM E-score": -0.4},
      {"sequence": "CCTTGCTA", "PBM E-score": 0.091},
      {"sequence": "ATCTTAAA", "PBM E-score": -0.0445},
      {"sequence": "ACGGCTCT", "PBM E-score": 0.454},
      {"sequence": "ATCCCCGA", "PBM E-score": -0.354},
      {"sequence": "CAATAAGA", "PBM E-score": 0.082},
      {"sequence": "ATACTTCA", "PBM E-score": 0.00247},
      {"sequence": "CCCGTCAC", "PBM E-score": -0.328},
      {"sequence": "ATCGATGC", "PBM E-score": 0.203},
      {"sequence": "AGAAGCCA", "PBM E-score": 0.145},
      {"sequence": "ATGAGGAG", "PBM E-score": -0.0141},
      {"sequence": "AGTATCAC", "PBM E-score": 0.132},
      {"sequence": "GATCTTCC", "PBM E-score": -0.171},
      {"sequence": "AATCACGG", "PBM E-score": 0.215},
      {"sequence": "GCATTTCC", "PBM E-score": 0.146},
      {"sequence": "GTCCAGGA", "PBM E-score": -0.179},
      {"sequence": "TTCACCAA", "PBM E-score": 0.204},
      {"sequence": "CTTAATGA", "PBM E-score": -0.0422},
      {"sequence": "CCGACTAG", "PBM E-score": -0.135},
      {"sequence": "AAATTTAT", "PBM E-score": 0.176},
      {"sequence": "AGCGGCAT", "PBM E-score": 0.406},
      {"sequence": "GACGATAA", "PBM E-score": -0.102},
      {"sequence": "CACTATGC", "PBM E-score": 0.0415},
      {"sequence": "AGAATCGC", "PBM E-score": 0.125},
      {"sequence": "AACACTAC", "PBM E-score": -0.0164},
      {"sequence": "CGGCACAG", "PBM E-score": 0.398},
      {"sequence": "GAGATTTA", "PBM E-score": 0.0469},
      {"sequence": "GTCGTACA", "PBM E-score": -0.0298},
      {"sequence": "CCACACGG", "PBM E-score": 0.385},
      {"sequence": "ATGCGGAA", "PBM E-score": 0.164},
      {"sequence": "GGATTGAC", "PBM E-score": 0.08},
      {"sequence": "ACTTAATA", "PBM E-score": 0.0715},
      {"sequence": "AGCCGTGC", "PBM E-score": 0.465},
      {"sequence": "CAAAGCTA", "PBM E-score": 0.0274},
      {"sequence": "ACGCCAAA", "PBM E-score": -0.00017},
      {"sequence": "CCGCGAAA", "PBM E-score": 0.102},
      {"sequence": "AAGATTAC", "PBM E-score": -0.0171},
      {"sequence": "GCGATAGA", "PBM E-score": -0.0418},
      {"sequence": "ACCTGAGG", "PBM E-score": -0.252},
      {"sequence": "AAGTATCA", "PBM E-score": 0.144},
      {"sequence": "ATCGTTGG", "PBM E-score": 0.0123},
      {"sequence": "AGGTGGTC", "PBM E-score": -0.293},
      {"sequence": "ATATGCAC", "PBM E-score": 0.0296},
      {"sequence": "GTTACCCA", "PBM E-score": -0.248},
      {"sequence": "GATCGGAC", "PBM E-score": -0.0767},
      {"sequence": "GCCTGGAA", "PBM E-score": -0.133},
      {"sequence": "ACATGTAG", "PBM E-score": -0.0259},
      {"sequence": "CAAACCAA", "PBM E-score": 0.0979},
      {"sequence": "ATATAGCA", "PBM E-score": -0.0841},
      {"sequence": "GCTACACC", "PBM E-score": -0.0559},
      {"sequence": "ACACGCGG", "PBM E-score": 0.221},
      {"sequence": "CGATAACA", "PBM E-score": 0.00285},
      {"sequence": "AAACTGCC", "PBM E-score": 0.185},
      {"sequence": "AGTACAAA", "PBM E-score": 0.0306},
      {"sequence": "CGGCGATA", "PBM E-score": 0.395},
      {"sequence": "CGTTCAGA", "PBM E-score": -0.0226},
      {"sequence": "CAACACTG", "PBM E-score": -0.00558},
      {"sequence": "CGCTACCC", "PBM E-score": -0.301}
    ]}
  ]
}
